Drawing on PubChem BioAssay AID485344 (National Center for Advancing Translational Sciences (NCATS), 2010), this text covers inhibition for 61 compounds.

By inhibition is commonly meant the relative decrease from the control value, in per cent.

In all, about 340,000 compounds went through this assay and about 6,900 (2%) were called active. No stated cut-off is given here; in the data, active means inhibition above about 30%; inactive means below that, where a call was filed. This is a selection; strong and weak results do not stand in their true shares. Entries without a call were filed so in the source.

In this assay the target is D(2) dopamine receptor (Homo sapiens) (UniProt P14416). Briefly: HTS Assay for Allosteric Antagonists of the Human D2 Dopamine Receptor: Primary Screen for Antagonists. Further: 0% is about no effect. To be noted: HEK293 TREx D2 cells, calcium flux, dopamine EC80; at 10 µM; stronger effect = higher value. The essentials: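 Cells plated overnight at 30 C with tetracycline; no-wash calcium dye, 30–90 min RT; 10 s baseline; compound pinned; 180 s read; EC80 dopamine added; another 180 s read.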
UniProt P14416, sequence (P14416 whole entry, looked up): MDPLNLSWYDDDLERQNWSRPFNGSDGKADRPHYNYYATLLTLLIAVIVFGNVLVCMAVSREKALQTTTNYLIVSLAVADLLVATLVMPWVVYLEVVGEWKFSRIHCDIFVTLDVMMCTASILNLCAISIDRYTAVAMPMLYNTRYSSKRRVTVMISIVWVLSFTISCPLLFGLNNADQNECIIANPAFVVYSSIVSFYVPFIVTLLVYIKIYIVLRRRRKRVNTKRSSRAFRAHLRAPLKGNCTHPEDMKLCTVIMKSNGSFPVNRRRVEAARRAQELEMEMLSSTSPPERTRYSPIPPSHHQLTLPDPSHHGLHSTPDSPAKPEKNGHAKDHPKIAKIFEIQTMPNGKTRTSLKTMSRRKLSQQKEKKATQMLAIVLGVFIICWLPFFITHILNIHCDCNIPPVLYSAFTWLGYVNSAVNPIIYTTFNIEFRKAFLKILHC
For the compound `CCC(C(=O)NCCc1cc(OC)ccc1OC)n1nc(C)c2sc3ccccc3c2c1=O` (stereo unspecified), the inhibition stood at 5.22%. On to `CN1CCN(C2=Cc3ccc(Cl)cc3Sc3ccc(F)cc32)CC1`, for which the inhibition is active: 103%. As for `CCCCC(=O)N/N=C/c1ccc(N2CCOCC2)c([N+](=O)[O-])c1`, the figure is active: 59.1%; as for `Cc1cc(-c2nc3ncccc3o2)ccc1NC(=O)COc1cc(C)c(Cl)c(C)c1`, -13.8%. Take `CN(C)c1ccc(CNC(=O)c2cccn2-c2nnc(N3CCCCC3)s2)cc1`: the inhibition stood at 3.75%. As for `CCCCOc1ccc(C(=O)NCCc2csc(-c3ccc(OC)cc3)n2)cc1`, the figure is -0.128%. With `CCOC(=O)c1cnc2nc(NCc3ccc(OCC)cc3)[nH]n2c1=O`, the inhibition worked out at 8.71%. For the compound `CN(CC(=O)Nc1cccc(F)c1)C(=O)c1cc([N+](=O)[O-])ccc1N1CCCCC1`, the inhibition is active: 41.6%. Consider `CCOc1ccc(S(=O)(=O)NCC(c2cccs2)S(=O)(=O)c2ccc(C)cc2)cc1` (stereo unspecified), for which the inhibition is -0.174%. In the case of `Cc1ccc(C)c(N(C)S(=O)(=O)c2ccc3[nH]cc(C(=O)NC4CCCC4)c(=O)c3c2)c1`, the inhibition came out at 13%.

Regarding `Cc1cccc(C)c1NC(=O)CNC(=O)CN1C(=O)NC2(CCc3ccccc32)C1=O` (stereo unspecified), the inhibition is active: 33.2%. For `CC(C)(C)NC(=O)CCSc1nc(-c2ccc3c(c2)OCO3)cc(C(F)(F)F)n1` the value was 12.1%.

In the case of `COc1ccc(S(=O)(=O)c2cn(C)c3cc(N4CCOCC4)c(F)cc3c2=O)cc1`, the inhibition was -0.542%. As for `Cc1ccc(NS(=O)(=O)c2ccc3[nH]c4c(c3c2)CCCCC4)cc1`, the inhibition was found to be 8.31%. Take `Cc1ccc(OCc2cc(=O)n3cc(C)sc3n2)c(C)c1`: the inhibition turned out to be 4.91%.

In the case of `CC(=O)N1CCc2cc(S(=O)(=O)N3CCN(c4ccc(C)cc4)C(C)C3)ccc21` (stereo unspecified), the inhibition is 6.33%.

On to `Cc1cccnc1NC(=O)CSc1nnc(Cc2ccccc2)o1`, for which the inhibition is active: 44.4%. `CCc1ccc(OCC(=O)Nc2ccc3oc(-c4ccc(OC)cc4)nc3c2)cc1`: the inhibition is 19.6%. As for `CCc1ccc(OCC(=O)Nc2ccc(Cl)c(-c3nc4ncccc4o3)c2)cc1`, the inhibition was -8.82%.

In the case of `O=C(COc1ccccc1)Nc1c(Cl)ccc2nsnc12`, the inhibition stood at 7.94%. For the compound `COC(=O)CC1Oc2ccc(Cl)cc2-n2cc(-c3ccc(F)cc3)nc21` (stereo unspecified), the inhibition amounted to 8.83%. For `CC1CCc2c(sc(NC(=O)c3cc(-c4ccc(Br)cc4)on3)c2C(N)=O)C1` (stereo unspecified) the value was 5.56%. As for `COc1ccc(-c2nn(C)c3sc(C(=O)N4CCN(c5cccc(Cl)c5)CC4)cc23)cc1OC`, the inhibition came to 0.165%. As for `COc1ccc(NC(=O)C2CCN(S(=O)(=O)c3c(C)noc3/C=C/c3ccc(C)cc3)CC2)cc1Cl`, the inhibition turned out to be 19.4%.

As to `Cc1c(CNCCCc2ccccc2)c(C(=O)O)c(C)n1Cc1cccc(Cl)c1`, the inhibition is -4.75%. Consider `Cc1cccc(-n2c(-c3ccco3)nc3c(cnn3-c3ccc(F)cc3)c2=O)c1`, for which the inhibition is -14.2%. For `Cc1ccc(-n2cnc3cc(C(=O)NC4CCCCCC4)ccc32)cc1Cl` the value was -5.59%. Turning to `COC(=O)c1c(C)sc(-c2c(-c3ccc4c(c3)OCCO4)[nH]c3c2c(=O)[nH]c(=O)n3C)c1O`, the inhibition is 5.5%. As for `CCC1=C(c2ccc(C)cc2)S(=O)(=O)N=C1N1CCC(C(=O)N2CCCCC2)CC1`, the figure is 9.02%. As for `CCS(=O)(=O)NCCc1csc2nc(-c3ccc(C)cc3)nn12`, the inhibition is 12.4%. Regarding `Cc1ccc(CC(=O)Nc2ccc(F)c([N+](=O)[O-])c2)cc1C`, the inhibition was active: 42.2%. For `O=C(COCc1cc(-c2cccs2)on1)Nc1cccc(O)c1` the value was -14.7%; for `Cc1ccc(C)c(NC(=O)Nc2csc3c2CCCC3)c1`, -23.9%; for `Cc1cc(C)c(NC(=O)CCCn2c(=O)oc3ccccc32)c(C)c1`, active: 33.1%.

As for `CCOC(=O)N1CCN(Cc2ccc(OCC(O)CN3CCCCC3)cc2)CC1` (stereo unspecified), the inhibition is active: 50.9%.

Consider `CC(C)NC(=O)C1CCN(C(=O)N2CC(C)Oc3ccccc32)CC1` (stereo unspecified), for which the inhibition amounted to 9.29%.

For `CCOc1ccc2nc(N3CCCC(C(=O)NCc4ccc(C)cc4)C3)sc2c1` (stereo unspecified), the inhibition is 6.72%. As for `COc1ccccc1NC(=O)Cn1c(=O)n(Cc2nc(-c3ccccc3)no2)c(=O)c2ccccc21`, the inhibition is 0.403%.

As for `CN1CCc2c(n(CC(O)CNCc3ccccc3)c3ccccc23)C1=O` (stereo unspecified), the inhibition was active: 66.3%. `COc1ccc(-c2nc3c4ccccc4n(CC(=O)N4CCN(c5ccccc5F)CC4)c(=O)n3n2)cc1`: the inhibition is -2.08%. `O=C(CCCC(=O)OCC(=O)c1ccc(F)cc1)Nc1cc(C(F)(F)F)ccc1Cl`: the inhibition is active: 46.9%. `CCCCN(CC)CCNC(=O)c1nn(C)c2c1CS(=O)(=O)c1ccccc1-2`: the inhibition came out at 11.9%.

For `Cc1ccc(C(=O)N/C(N)=N/c2nc3ccccc3o2)cc1`, the inhibition is active: 53%.

For `C=CCN(CC=C)CCOc1ccc(C)cc1[N+](=O)[O-]`, the inhibition was active: 38.3%. With `Cc1ccc(NC(=O)CSc2nnc(NC(=O)NC3CCCCC3)s2)cc1`, the inhibition is 27.7%. Regarding `CCc1ccc(NC(=O)CCCc2nnc3n(C(C)CC)c(=O)c4sccc4n23)cc1` (stereo unspecified), the inhibition was -3.83%. As for `COc1ccccc1C(=O)Nc1ccc(S(=O)(=O)Nc2nc(C)cc(C)n2)cc1`, the figure is 4.13%; as for `COc1ccc(C(C)(C)C)cc1NC(=O)CCc1c(C)noc1C`, active: 63.4%; as for `O=C(O)CN1C(=O)COc2cc(S(=O)(=O)N3CCCC3)ccc21`, active: 30.8%. For `COc1ccc(C(=O)NCC(=O)N/N=C/c2c(C)[nH]c3ccccc23)cc1` the value was active: 52.7%.

For `O=c1cc(-c2ccc([N+](=O)[O-])cc2)nc2cc(-c3ccc(Cl)cc3)[nH]n12`, the inhibition was active: 35.5%. `COc1ccc(NC(=O)c2ccco2)cc1NC(=O)c1cc(Br)ccc1Cl`: the inhibition was determined as 8.41%. As for `CCOc1ccc(C(=O)c2oc3ccccc3c2NC(=O)c2cc(=O)c3ccc(C)cc3o2)cc1`, the figure is 12.6%; as for `CCCCN(CC)C(=O)CSc1nc2ccccc2c(=O)n1Cc1ccco1`, -5.8%; as for `COc1cc(-c2nc(-c3ccccc3)c(-c3ccc(Br)cc3)[nH]2)cc(OC)c1O`, -16.9%.

Turning to `COc1ccc(NC(=O)C2CCN(c3ccc(Sc4ccc(C)cc4)nn3)CC2)cc1`, the inhibition is -6.1%.

Consider `COC(=O)c1cc2sc(Cl)cc2n1Cc1nc(-c2ccccc2C)oc1C`, for which the inhibition worked out at 8.29%. Consider `CC1CN(C(=O)N2CCC(C(=O)NCc3cccs3)CC2)c2ccccc2O1` (stereo unspecified), for which the inhibition is -9.32%.

Regarding `COc1ccc(Nc2oc(/C=C/c3cc(OC)c(OC)c(OC)c3)nc2C#N)cc1`, the inhibition was 14.3%. Turning to `CC1CCN(S(=O)(=O)c2ccc3c(c2)N(CC(=O)NC(C)(C)C)C(=O)CS3)CC1`, the inhibition was determined as 17%. In the case of `COc1cccc(CNC(=O)Cn2c(=O)nc(-c3ccccc3F)c3cc(Cl)ccc32)c1`, the inhibition is 7.85%.
